# Experimental data taken from article PMC6919601, “Identification of Plasmodium dipeptidyl aminopeptidase allosteric inhibitors by high throughput screening” (PLoS ONE, 2019).
# In all, about 110,000 compounds went through this assay and about 230 (0.21%) showed an effect of 50% or more. Some of the results follow.
# Biological target: DPAP1 (Plasmodium falciparum, UniProt Q8IIJ9)
# Assay: primary screen, percent inhibition; read by cleavage of a fluorogenic dipeptide substrate; higher = more effect of the substance
# Set-up: species or system P. falciparum D10 trophozoite lysates; single well
# 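Note: 30 min substrate incubation versus DMSO and 10 µM JCP410 controls.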
# DPAP1, sequence (Q8IIJ9 whole entry, looked up): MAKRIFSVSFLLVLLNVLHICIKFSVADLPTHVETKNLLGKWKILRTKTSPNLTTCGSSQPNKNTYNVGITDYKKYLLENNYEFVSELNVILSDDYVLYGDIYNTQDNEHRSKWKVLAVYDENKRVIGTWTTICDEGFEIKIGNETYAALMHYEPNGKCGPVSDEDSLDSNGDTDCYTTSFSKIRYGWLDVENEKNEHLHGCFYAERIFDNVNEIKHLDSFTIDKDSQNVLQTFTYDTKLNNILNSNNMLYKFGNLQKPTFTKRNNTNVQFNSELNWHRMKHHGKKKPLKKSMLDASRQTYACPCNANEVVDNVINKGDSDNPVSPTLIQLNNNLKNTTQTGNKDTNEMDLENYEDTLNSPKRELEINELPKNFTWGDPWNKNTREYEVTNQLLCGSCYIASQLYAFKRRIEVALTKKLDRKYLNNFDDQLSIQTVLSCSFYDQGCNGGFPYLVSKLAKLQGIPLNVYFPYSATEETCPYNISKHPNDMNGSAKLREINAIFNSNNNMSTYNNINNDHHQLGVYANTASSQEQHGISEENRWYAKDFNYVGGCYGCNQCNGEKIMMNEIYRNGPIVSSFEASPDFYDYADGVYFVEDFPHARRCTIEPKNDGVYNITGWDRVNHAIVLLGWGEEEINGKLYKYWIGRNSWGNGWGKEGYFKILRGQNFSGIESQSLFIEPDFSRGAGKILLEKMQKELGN
row,SMILES,% Inhibition @ 10 uM [%]
1,CC(C)CC1=NN2C(=N)/C(=C/c3cccc4ccccc34)C(=O)N=C2S1,2.17
2,CN1CCC(N2CCN(C/C=C/c3ccccc3)CC2)CC1,4.75
3,O=c1oc2ccc3ccccc3c2cc1-c1csc(NC2CCCCC2)n1,4.02
4,COc1cc(OC)c(C=C2C(=O)OC3(CCCC3)OC2=O)cc1Br,-0.85
5,CCOc1ccc(N2C(=O)CC(N3CCN(Cc4ccc5c(c4)OCO5)CC3)C2=O)cc1 (stereo not shown),-4.21
6,OCCNCc1cc(Br)ccc1OCc1ccc(Cl)cc1Cl,-3.87
7,CC(=O)c1ccc2[nH]c3c(c2c1)CCCC3,-10.6
8,Cn1c(=O)c2c(nc(NC3CCCCC3)n2Cc2ccc(F)cc2)n(C)c1=O,2.09
9,CC(=O)c1cc(-c2ccc(F)cc2)n(CC(=O)NC2CCN(Cc3ccccc3)CC2)c1C,-3.64
10,COC(=O)c1ccc(Oc2nc(NC(C)C)nc(NC(C)C)n2)cc1,-0.467
11,Cc1cc(=O)n2nc(N3CCCC(C(=O)NCc4ccco4)C3)sc2n1 (stereo not shown),-3.79
12,CCC(=O)n1nc(-c2ccc(Cl)cc2)nc1NCc1ccco1,2.31
13,CN(C)c1ccc(C2C(C#N)=C(N)Oc3[nH]nc(-c4ccccc4)c32)cc1 (stereo not shown),-2.77
14,CC[n+]1c(C)n(CC(O)COCC2CC=CCC2)c2ccccc21 (stereo not shown),0.147
15,O=C(NCC1c2ccccc2CCN1C(=O)CN1CCOCC1)C1CCCCC1 (stereo not shown),-4.96
16,CC(C)(CO)Nc1nc(NCc2ccco2)nc(N2CCOCC2)n1,2.05
17,CCOc1ccc(CCNc2nc(-c3ccc(OC)cc3)no2)cc1OCC,5.09
18,CCN(CC)c1ccc(NC(=O)c2nn(C)cc2Cl)cc1,-1.44
19,Cc1cc(NS(=O)(=O)c2ccc(NC(=O)C(F)(F)F)cc2)nc(C)n1,-4.21
20,O=C(CN1CCN(Cc2cccc(Cl)c2)C1=O)N1CCC(Cc2ccccc2)CC1,-0.426
21,COc1ccc(O)c(C2Nc3ccccc3N=C3CC(C)(C)CC(O)=C32)c1 (stereo not shown),-4.67
22,Cc1cc(C)c(C)c(S(=O)(=O)NCc2ccc(C(=O)N3CCOCC3)cc2)c1C,3.65
23,Cc1cccc(CN2C(=O)N/C(=C/c3cn(C)c4ccccc34)C2=O)c1,-7.61
24,O=C(c1ccco1)N1CCN(Cc2c[nH]c3ccccc23)CC1,0.147
25,COc1cc2c(cc1OC)C(C(=O)N(C)C1CCCCC1)C(c1cccs1)N(C)C2=O (stereo not shown),-6.51

row,SMILES,% Inhibition @ 10 uM [%]
1,CCOc1ccccc1/C=c1\sc2nc(-c3cccc(C)c3)nn2c1=O,-2.98
2,CCC(Oc1ccccc1)C(=O)NCc1ccc(S(N)(=O)=O)cc1 (stereo not shown),-1.38
3,CC(C)(C)/C(O)=C/c1nc2cccnc2nc1/C=C(\O)C(C)(C)C,1.82
4,N#Cc1cc2c(nc1SCC(=O)NCCc1ccccc1)CCCCC2,3.81
5,Cc1cccn2c(=O)c3cc(C#N)c(=O)n(CCc4ccccc4)c3nc12,-0.551
6,COc1ccc(Br)cc1CN1CCN(C(=O)c2cccc(Cl)c2)CC1,-7
7,O=C(CSc1nc(-c2ccc(F)cc2)cc(C(F)(F)F)n1)NCc1ccncc1,-0.318
8,Cc1ccc(Oc2cc(-n3ncc(C#N)c3N)ncn2)cc1,-4.49
9,O=C(Nn1cnnc1)c1ccccc1,5.98
10,Cc1ccc(C(=O)Nc2ccc(OCC(=O)O)cc2)cc1C,18.3
11,COc1cccc(NC(=O)c2ccc(Cl)c([N+](=O)[O-])c2)c1,3.54
12,CCOc1ccccc1NC(=O)C1CCCC1,2.27
13,CC(C)CN(CC(C)C)C(=O)Nc1ccccc1C(F)(F)F,-5.5
14,N#C/C(=C\c1ccco1)C(=O)NCC1CCCO1 (stereo not shown),25.9
15,COc1ccc(-c2ccc(C=C3C(=O)N(C)C(=O)N(C)C3=O)o2)cc1Cl,0.0719
16,COc1ccc(C(O)Cc2nccn2C)cc1 (stereo not shown),1.89
17,CCOc1ccc(/C=C2/SC(=O)N(CC(=O)N3CCCCC3)C2=O)c(OCC)c1,-9.24
18,COc1ccc(C2(CNC(=O)c3ccco3)CCOCC2)cc1,-1.93
19,CNC(=O)c1nnc(-c2ccccc2)o1,0.974
20,COc1ccc(N2CCN(C3CCN(C(C)=O)CC3)CC2)cc1,-0.0648
21,COc1ccc(NC2=C(Cl)C(=O)N(c3ccccc3)C2=O)c(OC)c1,-1.84
22,COc1ccc(Cn2c(=O)c3cccnc3n(CC(=O)c3ccc(Br)cc3)c2=O)cc1,-3.44
23,Brc1cccc(C2N3CCCN23)c1 (stereo not shown),0.66
24,Cc1ccc(-c2nc(CS(=O)(=O)CC(=O)NCCCN(C)Cc3ccccc3)c(C)o2)cc1,-1.89
25,CCSc1nc2c(c(=O)n1C1CCCCC1)C1(CCCC1)Cc1ccccc1-2,1.27

row,SMILES,% Inhibition @ 10 uM [%]
1,CC(C)Oc1ccc(C(=O)N(CCCN(C)C)c2nc3c(F)cccc3s2)cc1,1.25
2,Cc1ccc(C(C)C)c(OC(C)C(=O)N(Cc2ccco2)C2CCS(=O)(=O)C2)c1 (stereo not shown),-1.11
3,O=C(Nc1cccc([N+](=O)[O-])c1)C1CC1c1ccccc1 (stereo not shown),3.16
4,CC1CCc2[nH]c3ccccc3c2C1 (stereo not shown),-0.68
5,N#CC1=C(N)Oc2nc(O)nc(O)c2C12C(=O)Nc1ccccc12 (stereo not shown),-0.0217
6,COc1cccc(C(=O)N2CCN(Cc3ccccc3Cl)CC2)c1,-0.0938
7,COP(=O)(OC)C(Nc1cccc(C(F)(F)F)c1)c1cccc(C)c1 (stereo not shown),-3.62
8,CCOC(=O)N1CCN(C(=O)CCc2c(C)nc3nc(C)nn3c2C)CC1,-0.465
9,O=S(=O)(Nc1ccc(Nc2ccccc2)cc1)c1ccc(F)cc1,0.316
10,O=c1cccc2n1C[C@H]1C[C@@H]2CN(Cc2ccco2)C1,-3.63
11,Cc1cccc(NS(=O)(=O)c2c(C)cc(C)cc2C)c1,1.83
12,COc1ccc(C(=O)N2CCN(c3ccc(C)c(C)c3)CC2)cc1OC,-3.78
13,Cc1cc(=O)n2nc(N3CCCC(C(=O)NCCCN4CCc5ccccc5C4)C3)sc2n1 (stereo not shown),-2
14,O=C(NCCc1ccc(Cl)cc1)c1ccc(CNc2c(N3CCOCC3)c(=O)c2=O)cc1,3.07
15,CC(Cc1ccccc1)/N=C/C1=C(O)CNC1=O (stereo not shown),1.96
16,Cc1nc2c(O)oc3ccccc3c-2n1,2.05
17,O=C1N/C(=C/c2ccc(-c3ccc(F)cc3)o2)C(=O)N1Cc1ccccc1,-5.14
18,CC1CC(=O)C2=C(C1)OC(N)=C(C#N)C2c1ccc(Cl)c(Cl)c1 (stereo not shown),0.317
19,CC(CCN1CCN(c2ccccc2Cl)CC1)c1ccccc1 (stereo not shown),-9.55
20,COc1cccc(/C(O)=C/c2nc3ccc(C(=O)N4CCN(c5ccccn5)CC4)cc3nc2O)c1,-4.66
21,O=C(COc1ccc(Cl)cc1Cl)Nc1ccc(F)cc1F,-3.77
22,CCC(C)NC(=O)Cn1ncc2c(C)n(Cc3cccc(Cl)c3)c(C)c2c1=O (stereo not shown),-2.17
23,CCCCOc1ccc(C(C)(N)CC(=O)O)cc1 (stereo not shown),2.86
24,O=C(NC1CCCCC1NC(=O)C1CC1)C1CC1 (stereo not shown),-1.6
25,CCOC(=O)c1sc(C)c2c(=O)n(Cc3ccccc3)c(C)nc12,1.37

row,SMILES,% Inhibition @ 10 uM [%]
1,CCc1cc(CC)c(/C=C(\C#N)C(N)=O)c(CC)c1,-2.51
2,CC(Oc1c(F)c(F)cc(F)c1F)C(=O)NCc1ccc(-n2cccc2)cc1 (stereo not shown),4.61
3,O=C(O)c1ccc(N2C(=O)C3C4CCC(C4)C3C2=O)cc1 (stereo not shown),-3.5
4,O=C1c2ccccc2C(=O)C1(NCc1ccc2c(c1)OCO2)c1ccccc1,-6.73
5,Nc1c(S(=O)(=O)c2ccccc2)c2nc3ccccc3nc2n1CCCO,0.989
6,Cc1cc(-c2ccccc2)nc(N2CCCC(C(=O)O)C2)n1 (stereo not shown),0.401
7,COc1ccc(N(C(C)C(=O)N(C)C)S(C)(=O)=O)cc1 (stereo not shown),-17.1
8,COC(=O)c1c(SC)nc2ccccc2c1OCc1ccccc1,-7.91
9,COc1ccc2nc(NC(=O)CSC3=NCCS3)sc2c1,-2.54
10,COc1ccccc1[C@@H](C)C[C@H](NC(=O)c1ccc(-c2ccccc2Cl)nc1)C(=O)NCC#N,-8.36
11,Cc1cccc(NC(=O)c2ccc(C(C)(C)C)cc2)n1,-5.01
12,N=C(Nc1ccc(Br)cc1)c1ccccc1,6.18
13,O=C(NCC1(c2ccccc2)CCOCC1)c1ccccc1Cl,1.37
14,CCCOc1ccc(C2CC(=O)NC3=C2C(=O)CC(C)(C)C3)cc1OC (stereo not shown),10.4
15,CCOC(=O)c1cc(C)n(-c2ccc(C(=O)Nc3nc4ccc(OCC)cc4s3)cc2)c1C,0.693
16,COc1ccccc1/C=C/c1nc(-c2ccc(OC)c(OC)c2)no1,-3.33
17,O=C1C2C3C=CC(C3)C2C(=O)N1Cc1ccccc1 (stereo not shown),-0.807
18,CC1CN(C(=O)C2(C)CCCCC2)c2ccccc21 (stereo not shown),-4.18
19,Cc1cccc(C2=N/C(=C\c3ccc(C(C)C)cc3)C(=O)O2)c1,-2.6
20,COc1ccc(C2C(C(=O)Nc3nc4ccccc4s3)c3ccccc3C(=O)N2C)cc1 (stereo not shown),0.457
21,O=C(/C=C/c1ccccc1)Nc1cc(C(=O)O)cc(C(=O)O)c1,-3.52
22,C=CCNc1ncnc2c1cnn2C,-3.02
23,CC1CC(=O)C2=C(C1)OC(N)=C(C#N)C2c1ccccc1F (stereo not shown),-5.57
24,CN(C)CCN(C(=O)Cc1ccccc1)c1nc2cc3c(cc2s1)OCO3,-3.88
25,CCOC(=O)N1CCC(NS(=O)(=O)c2ccc3oc(=O)c4ncn(CC)c4c3c2)CC1,1.49
